Experimental data: US20210138025A1, “CATIONIC PEPTIDES WITH IMMUNOMODULATORY AND/OR ANTI-BIOFILM ACTIVITIES” (priority 2018, published 2021)
“Also recorded” adds a separate entry of the source. Part of at least one peptide drawing is inferred or uncertain, most often the ends. Some entries share one result that the patent states for a list of compounds. No end group written: not given here.

What was measured:
13 bacterial strains = experiment: MBIC panel summary: number of the 13 bacterial strains with biofilm growth inhibited; assay type: cell-based; details: out of 13 strains (MBIC)
IL-1β = experiment: Suppression of LPS-induced IL-1β production in human PBMCs, ELISA (Tables 6, 7; FIGS. 6-9, 13); details: SPOT synthesized peptide ~25 μM, LPS stimulated PBMCs from 3 human donors; Table 6
PBMCs = experiment: Cytotoxicity towards PBMCs, lactate dehydrogenase (LDH) release assay (Tables 6, 7); details: compared with 1018
[1] = system: P. aeruginosa Liverpool epidemic strain LESB58; experiment: Mouse chronic abscess model vs Pseudomonas aeruginosa; assay type: in vivo, mice; details: 10 mg/kg intra-abscess injection, bacteria recovered after three days
S. aureus (MRSA SAP0017) = assay type: cell-based, Staphylococcus aureus; details: SPOT synthesized peptide, ~12.5 μM, clinical MRSA strain, crystal violet assay
Experimental: Methods of assessment of anti-biofilm activity: MRSA S. aureus strain SAP0017 biofilm formation was initially analyzed using a static abiotic solid surface assay as described elsewhere (de la Fuente-Nunez et al., 2012) and shown graphically in FIG. 2. Dilutions (1/100) of overnight cultures were incubated in BM2 biofilm-adjusted medium [62 mM potassium phosphate buffer (pH 7), 7 mM (NH4)2SO4, 2 mM MgSO4, 10 μM FeSO4, 0.4% (wt/vol) glucose, 0.5% (wt/vol) Casamino Acids], or a nutrient rich medium such as Tryptic soy broth supplemented with 1% glucose, in polypropylene microtiter plates (Falcon, United States) in the absence (control) or presence of peptide. Peptide was added at time zero (prior to adding the diluted, overnight cultures) in varying concentrations, and the amount biofilm formation was recorded after 22-46 h incubation for most bacteria. To quantify biofilm growth, planktonic cells were removed and biofilm cells adhering to the side of the wells were stained with crystal violet, and absorbance at 595 nm was measured using a microtiter plate reader (Bio-Tek Instruments Inc., United States).

[2] = Peptide aggregation in sodium phosphate buffer, turbidity at 600 nm; assay type: physicochemical; details: 1 mg/ml peptide, sodium phosphate buffer pH 7.0, turbidity at 600 nm
MCP-1 = MCP-1 chemokine induction in human PBMCs, ELISA (Tables 6, 7; FIGS. 6-9, 13); assay type: cell-based; details: SPOT synthesized peptide alone, ~25 μM, PBMCs from 3 human donors; Table 6
Experimental: Venous blood (20 ml) from healthy volunteers was collected in Vacutainer® collection tubes containing sodium heparin as an anticoagulant (Becton Dickinson, Mississauga, ON) in accordance with UBC ethical approval and guidelines. Blood was diluted 1:1 with complete RPMI 1640 medium and separated by centrifugation over a Ficoll-Paque® Plus (Amersham Biosciences, Piscataway, N.J., USA) density gradient. White blood cells were isolated from the buffy coat, washed twice in PBS and then resuspended in RPMI 1640 complete medium (containing 10% fetal bovine serum), and the number of peripheral blood mononuclear cells (PBMC) was determined by Trypan blue exclusion. PBMCs (5×10^5) were seeded into 12-well tissue culture dishes (Falcon; Becton Dickinson) at 0.75-1×10^6 cells/ml at 37° C. in 5% CO2. The above conditions were chosen to mimic conditions for circulating blood monocytes entering tissues at the site of infection via extravasation.
Following incubation of the cells under various treatment regimens, the tissue culture supernatants were centrifuged at 1000×g for 5 min, then at 10,000×g for 2 min to obtain cell-free samples. Supernatants were aliquoted and then stored at −20° C. prior to assay for various chemokines by capture ELISA (eBioscience and BioSource International Inc., CA, USA respectively)

MRSA USA300 LAC = experiment: Mouse abscess model of high density MRSA infection; assay type: in vivo, CD-1 mice; details: 14 mg/kg intra-abscess one hour after infection
E. coli O157:H7 = experiment: Biofilm inhibition, static microtitre plate assay, crystal violet (Table 17); details: BM2 minimal media
[3] = system: Salmonella typhimurium (ATCC 14028); experiment: as above; details: BM2 minimal media
MRSA biofilms = MRSA biofilms grown in flow cells, treatment of pre-formed 2-day old biofilms; details: 0.125 μM peptide, 2-day old biofilms in flow cells
[4] = system: S. aureus (methicillin resistant clinical isolate C623); experiment: Biofilm inhibition, static microtitre plate assay, crystal violet (Table 17; FIG. 19); details: 10% tryptic soy broth with 0.1% glucose
P. aeruginosa (PAO1) = experiment: as above; details: BM2 minimal media

**Q.** For “AVKWLGWILAKK-NH2 [Peptide 3016, AVKWLGWILAKK]”, which “number of bacterial strains in which biofilm growth was inhibited” value (13 bacterial strains) is on record?
**A.** 6

**Q.** And the “Fold Change in IL1-β relative to untreated LPS-stimulated cells” value (IL-1β)?
**A.** 0.34

**Q.** For GRVLKIVWRKGR-NH2 [Mmax-3, GRVLKIVWRKGR], which “Fold Change in IL1-β relative to untreated LPS-stimulated cells” value (IL-1β) is on record?
**A.** 0.64

**Q.** With “IAWQLLWGWRVR-NH2 [Peptide 3022, IAWQLLWGWRVR]” as the substance, how does the “Fold Change in IL1-β relative to untreated LPS-stimulated cells” value (IL-1β) read?
**A.** 0.6

**Q.** For “IKIIWKALGQVI-NH2 [Peptide 3024, IKIIWKALGQVI]”, which “toxicity: cytoxicity towards PBMCs and/or hemolysis towards RBCs (in words)” value (PBMCs) is on record?
**A.** low toxicity

**Q.** With “ILVRWIRWRIQW-NH2 [Peptide 3002, ILVRWIRWRIQW]” as the substance, how does the “change in colony forming units (CFU) (in words)” value [1] read?
**A.** no observable change

**Q.** And the “Fold Change in IL1-β relative to untreated LPS-stimulated cells” value (IL-1β)?
**A.** 0.64

**Q.** Which “Fold Change in IL1-β relative to untreated LPS-stimulated cells” value (IL-1β) does the source give for “IQLKLIWVKRKW-NH2 [MILBFmax5, IQLKLIWVKRKW]” here?
**A.** 0.85

**Q.** Which “Fold Change in IL1-β relative to untreated LPS-stimulated cells” value (IL-1β) does the source give for “IQRWWKVWLKVI-NH2 [Peptide 3004, IQRWWKVWLKVI]” here?
**A.** 0.64

**Q.** For “IWLRLKVVLKRK-NH2 [Peptide 3006, IWLRLKVVLKRK]”, which “% Residual MRSA biofilm growth compared to untreated control” value (from here on “% Residual MRSA biofilm growth”) (S. aureus (MRSA SAP0017)) is on record?
**A.** 35%

**Q.** And the “aggregation in phosphate buffer (turbidity, in words)” value [2]?
**A.** considerably lower aggregation than 1018

**Q.** And the “MCP1 production in PBMC” value (MCP-1)?
**A.** 3687 pg/mL

**Q.** Which results are given for “KIVIRIILQVIK-NH2 [Peptide 3015, KIVIRIILQVIK]”?
**A.** number of bacterial strains in which biofilm growth was inhibited (13 bacterial strains): 5; Fold Change in IL1-β relative to untreated LPS-stimulated cells (IL-1β): 0.83

**Q.** Which “Fold Change in IL1-β relative to untreated LPS-stimulated cells” value (IL-1β) does the source give for “KKWQLLIKWKLR-NH2 [Peptide 3008, KKWQLLIKWKLR]” here?
**A.** 2.23

**Q.** Which “% Residual MRSA biofilm growth” value (S. aureus (MRSA SAP0017)) does the source give for “LKLKAILKIIRV-NH2 [MILBFmax-1, LKLKAILKIIRV]” here?
**A.** 95%

**Q.** What about the “MCP1 production in PBMC” value (MCP-1) of the same substance?
**A.** 763 pg/mL

**Q.** For “LWQLWLKLKLKG-NH2 [Peptide 3013, LWQLWLKLKLKG]”, which “number of bacterial strains in which biofilm growth was inhibited” value (13 bacterial strains) is on record?
**A.** 5

**Q.** With “QLARLARVVWGL-NH2 [Peptide 3010, QLARLARVVWGL]” as the substance, how does the “Fold Change in IL1-β relative to untreated LPS-stimulated cells” value (IL-1β) read?
**A.** 0.85

**Q.** For “RVKAIKWRKIVV-NH2 [Peptide 3012, RVKAIKWRKIVV]”, which “Fold Change in IL1-β relative to untreated LPS-stimulated cells” value (IL-1β) is on record?
**A.** 0.85

**Q.** With “VARWKIIIAKLW-NH2 [BFmax-5, VARWKIIIAKLW]” as the substance, how does the “Fold Change in IL1-β relative to untreated LPS-stimulated cells” value (IL-1β) read?
**A.** 0.7

**Q.** For “VIKVLIKRWLKL-NH2 [BFmax-9, VIKVLIKRWLKL]”, which “Fold Change in IL1-β relative to untreated LPS-stimulated cells” value (IL-1β) is on record?
**A.** 0.64

**Q.** With “VIKWLLKILRAI-NH2 [Peptide 3001, VIKWLLKILRAI]” as the substance, how does the “Fold Change in IL1-β relative to untreated LPS-stimulated cells” value (IL-1β) read?
**A.** 2.27

**Q.** For “VLKIKVKIWVVK-NH2 [Peptide 3007, VLKIKVKIWVVK]”, which “% Residual MRSA biofilm growth” value (S. aureus (MRSA SAP0017)) is on record?
**A.** 42%

**Q.** And the “aggregation in phosphate buffer (turbidity, in words)” value [2]?
**A.** considerably lower aggregation than 1018

**Q.** What about the “MCP1 production in PBMC” value (MCP-1) of the same substance?
**A.** 3276 pg/mL

**Q.** Which results are given for “VLQIKKVLRLLL-NH2 [Peptide 3011, VLQIKKVLRLLL]”?
**A.** % Residual MRSA biofilm growth compared to untreated control (S. aureus (MRSA SAP0017)): 45%; MCP1 production in PBMC (MCP-1): 7696 pg/mL

**Q.** Which results are given for “VRLIVAVRIWRR-NH2 [Peptide 1018, VRLIVAVRIWRR, reference compound]”?
**A.** % Residual MRSA biofilm growth compared to untreated control (S. aureus (MRSA SAP0017)): 37%; bacterial burden within the abscess (in words) (MRSA USA300 LAC; 3 days): unaffected by peptide treatment; abscess size (in words) (MRSA USA300 LAC; monitored for 3 days): significantly reduced the abscess size; MCP1 production in PBMC (MCP-1): 1974 pg/mL; peptide concentration that inhibited more than 90% of adhered biofilm biomass, E. coli (O157:H7) (E. coli O157:H7): 1 µM; peptide concentration that inhibited more than 90% of adhered biofilm biomass, S. typhimurium (ATCC 14028) [3]: 1 µM; effect on pre-formed MRSA biofilms (in words) (MRSA biofilms): virtually identical to untreated controls; also recorded: no longer effective; peptide concentration that inhibited more than 90% of adhered biofilm biomass, S. aureus (C623) [4]: 32 µM; peptide concentration that inhibited more than 90% of adhered biofilm biomass, P. aeruginosa (PAO1) (P. aeruginosa (PAO1)): 4 µM

**Q.** For “WQGWAKIWVVRI-NH2 [Peptide 3019, WQGWAKIWVVRI]”, which “Fold Change in IL1-β relative to untreated LPS-stimulated cells” value (IL-1β) is on record?
**A.** 0.5

**Q.** Which “Fold Change in IL1-β relative to untreated LPS-stimulated cells” value (IL-1β) does the source give for “WVGVIIKWGLKL-NH2 [Peptide 3018, WVGVIIKWGLKL]” here?
**A.** 0.5
